# Experimental data from PubChem BioAssay AID504706 (National Center for Advancing Translational Sciences (NCATS), 2011).
# In all, about 320,000 compounds went through this assay and about 200 (0.062%) were called active. This list was built around the results that the source calls inconclusive (neither active nor inactive); the mix of calls is not that of the screen. Calls follow the shape of the dose curve; as a rule, active = well fitted activation curve with a large enough effect; inconclusive = small, poorly fitted or top-dose-only effect; inactive = no such curve, though single readings can be large or run the other way. Potencies of inconclusive entries are left out as doubtful fits.
# Assay: qHTS assay for re-activators of p53 using a Luc reporter; also: nearly all actives have a fitted effect of over 45% in size
# Settings: H1299 p53-A138V BP100-luciferase reporter, luminescence, 24 h; series mostly up to 92.2 µM
# How it was run: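 H1299 (p53-null), stable ts p53-A138V + BP100-Luc; 1000 cells/well, Opti-MEM/10% FBS; cpd 4 pt, 1:5; 24 h, 37 deg C, 5% CO2; detection reagent 10 min RT; luminescence.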
# Potency is read from the fitted curve at half-maximal effect; tags tell the direction and shape of the fitted curve.
row,Compound,Potency
1,Cc1cc(Cl)ccc1OCC(=O)NNC(=O)c1cnccn1,inactive
2,CCc1nc(SCCO)c2oc3ccccc3c2n1,"inconclusive [activator, single point]"
3,O=C(/C=C/c1ccc2ccccc2n1)c1cc(Cl)ccc1O,"inconclusive [activator, partial curve, poor fit]"
4,O=C(Nc1ccccc1)c1cnc[nH]1,"inconclusive [activator, partial curve, poor fit]"
5,Cc1cc(/C=C2/C(=O)N(C)C(=S)N2C)ccc1N1CCCC1,"inconclusive [activator, partial curve, poor fit]"
6,CCn1nnc(NC(=O)c2sc3ccccc3c2Cl)n1,"inconclusive [activator, partial curve, poor fit]"
7,O=C(c1cc(-c2cccs2)on1)N1CCOCC1,"inconclusive [activator, partial curve, poor fit]"
8,O=C(c1csc(Nc2ccccc2Cl)n1)N1CCCC1,"inconclusive [activator, partial curve, poor fit]"
9,NC(=O)C1CCN(C(=O)Cc2ccsc2)CC1,inactive
10,Cc1cccc(C(=O)NNC(=O)CN2C(=O)c3ccccc3C2=O)c1,"inconclusive [activator, single point]"
11,COc1cc(C(=O)Oc2ccccc2/C=N/NC(=O)c2ccc(C)c(Cl)c2)cc(OC)c1OC,"inconclusive [activator, partial curve, poor fit]"
12,N#Cc1cc2c([nH]c1=S)CCCC2,"inconclusive [activator, single point]"
13,Cc1ccc(NC(=O)CN2CCCC2c2cccn2C)c(Br)c1 (configuration not stated),"inconclusive [activator, partial curve, poor fit]"
14,CCCC(=O)NC1=C(C#N)C2(CCCCC2)Cc2ccccc21,inactive
15,COC(=O)c1c(N2C(=O)Nc3ccccc3N2O)sc(C)c1C,inactive
16,O=C(COc1ccc(F)cc1Br)N1CCc2ccccc21,"inconclusive [activator, partial curve, poor fit]"
17,COc1cccc(/C=N/NC(=O)c2nc(-c3ccccc3)cc(-c3ccccc3)n2)c1O,"inconclusive [activator, partial curve, poor fit]"
18,Cc1cccc(N/N=C/c2ccccc2O)c1,"inconclusive [activator, partial curve, poor fit]"
19,CCOc1cnc(-c2c(-c3c(Cl)cccc3Cl)noc2C)o1,inactive
20,COc1ccc(C(=O)Oc2ccc(C(=S)N3CCCC3)cc2)cc1OC,"inconclusive [activator, partial curve, poor fit]"
21,CCOC(=O)c1sc(NC(=O)CSc2nc3c(cc2C#N)CCCCC3)c(C#N)c1C,"inconclusive [activator, single point]"
22,COc1ccc(CC(=O)N2CCc3ccccc32)cc1,"inconclusive [activator, full curve]"
23,COc1ccc(-c2cc(C(F)(F)F)nc(-n3ccnc3C)n2)cc1,"inconclusive [activator, partial curve, poor fit]"

row,Compound,Potency
1,O=S(=O)(NCCc1ccncc1)c1ccc(S(=O)(=O)N2CCCCCC2)cc1,"inconclusive [activator, single point]"
2,CC(C)C(=O)Nc1nnc(Cc2c[nH]c3ccccc23)s1,inactive
3,COc1ccc(-c2cnc(N)n2CC2CCCO2)cc1 (configuration not stated),"inconclusive [activator, full curve, poor fit]"
4,COc1ccc(-n2nnnc2SCc2nc3ccccc3s2)cc1,"inconclusive [activator, partial curve, poor fit]"
5,COc1ccc(C(=O)O/N=C2\CCCc3nonc32)cc1,inactive
6,CC1=CC(C)(C)NC(=S)N1c1ccccc1C,inactive
7,CSc1nnc(N2C(=O)C(O)=C(C(=O)c3ccc(C)o3)C2c2ccc(C)cc2)s1 (configuration not stated),"inconclusive [activator, full curve, poor fit]"
8,COC(=O)c1ccc(/C=N/NC(=O)c2ccccc2Cl)cc1,"inconclusive [activator, partial curve]"
9,O=C(NC(=S)NCCSc1ccccc1)c1cccnc1,"inconclusive [activator, partial curve, poor fit]"
10,O=C(CSc1cccc2cccnc12)NCc1ccco1,inactive
11,Cc1cc(C)n(S(=O)(=O)c2ccc(F)cc2)n1,"inconclusive [activator, single point]"
12,COc1ccccc1NC(=O)Nc1nc(CC(=O)N2CCN(c3ccc(F)cc3)CC2)cs1,inactive
13,CCC(=O)c1ccc(N2CCN(C(=O)c3cccs3)CC2)c(F)c1,"inconclusive [activator, partial curve]"
14,CCOC(=O)c1nnc(-c2ccccc2)nc1Sc1c(Cl)cccc1Cl,"inconclusive [activator, single point]"
15,c1cncc(-c2ccc3ncnc(NCc4cccs4)c3c2)c1,inactive
16,Cc1ccc(NC(=O)CCN2CCOCC2)cc1C,"inconclusive [activator, partial curve, poor fit]"
17,COc1ccc(N=c2sc3ccccc3n2C)cc1,"inconclusive [activator, partial curve, poor fit]"
18,N#Cc1ccncc1S(=O)c1ccc(Cl)cc1 (configuration not stated),"inconclusive [activator, full curve, poor fit]"
19,COc1c(Cl)cnn(-c2ccc(C)cc2)c1=O,"inconclusive [activator, single point]"
20,CCCN(Cc1ccccc1)C(=O)Nc1ccc2c(c1)nnn2C,"inconclusive [activator, partial curve, poor fit]"
21,O=C(Nc1ccc(N2CCCC2)c(Cl)c1)c1ccccc1[N+](=O)[O-],"inconclusive [activator, full curve, poor fit]"
22,COc1ccccc1N1C(=O)C(Cl)=C(Nc2ccccc2O)C1=O,"inconclusive [activator, single point]"
23,Cc1ccc(C(=O)Nc2nc(-c3ccc(F)cc3)cs2)o1,inactive

row,Compound,Potency
1,CN(c1cccc(NC(=O)COc2ccccc2)c1)S(C)(=O)=O,"inconclusive [activator, full curve, poor fit]"
2,Cc1ccc(C(=O)NCCc2ccccc2)cc1S(=O)(=O)N1CCOCC1,"inconclusive [activator, partial curve, poor fit]"
3,CCOc1ccc(N(CC(=O)Nc2ccc(CC)cc2)S(=O)(=O)c2c(C)[nH]c(=O)[nH]c2=O)cc1,inactive
4,CCOc1ccc(NC(=O)Nc2cc(C)ccc2F)cc1,"inconclusive [activator, full curve, poor fit]"
5,CCOC(=O)/C=C/c1ccc2oc3ccccc3c(=O)c2c1,inactive
6,Cc1ccc(S(=O)(=O)N2CCC(C(=O)N3CCC3)CC2)cc1,"inconclusive [activator, partial curve, poor fit]"
7,Cc1ccccc1Nc1nc(N)nc(COC(=O)c2ccccc2)n1,"inconclusive [activator, full curve, poor fit]"
8,CC1=NN(C(=O)Cc2ccccc2)C(O)(c2cccnc2)C1 (configuration not stated),"inconclusive [activator, single point]"
9,CC[C@H](CO)Nc1nc(Nc2cccc(Cl)c2)c2ncn(C(C)C)c2n1,"inconclusive [activator, partial curve, poor fit]"
10,CC1(C)NC(=O)N(CC(O)CN(Cc2ccccc2)Cc2ccccc2)C1=O (configuration not stated),inactive
11,COC(=O)Cn1ncn2c(cc3oc(C)cc32)c1=O,"inconclusive [activator, partial curve, poor fit]"
12,O=C(Nc1ccc(N2CCCCC2)c(Cl)c1)c1ccc2c(c1)OCCO2,"inconclusive [activator, partial curve, poor fit]"
13,O=C(Nc1ccc(S(=O)(=O)NCc2ccccc2)cc1)Nc1ccc2c(c1)OCO2,"inconclusive [activator, full curve, poor fit]"
14,COc1cccc(-c2cc(C(=O)Nc3nc4ccccc4s3)c3ccccc3n2)c1,"inconclusive [activator, single point]"
15,CCOC(=O)c1nn(-c2cccc(C)c2)cc1C(=O)c1ccccc1,"inconclusive [activator, partial curve, poor fit]"
16,COc1cc(OC)c2ccc(=O)oc2c1C(CCN1CCCC1)c1ccc2c(c1)OCO2 (configuration not stated),inactive
17,CCC1CCCCN1CCCNC(=O)c1ccc2nc(N3CCC(C)CC3)sc2c1 (configuration not stated),"inconclusive [activator, partial curve, poor fit]"
18,COc1ccc(/C=C2\SC(=O)N(CCNC(=O)Cc3coc4cc(OC)ccc34)C2=O)cc1,"inconclusive [activator, single point]"
19,Cc1ccc(C(=O)NC(=S)N2CCN(c3cc(C)ccc3C)CC2)cc1,"inconclusive [activator, partial curve, poor fit]"
20,c1ccc(Cn2c(-c3ccco3)nc3nc4ccccc4nc32)cc1,"inconclusive [activator, partial curve, poor fit]"
21,CCOC(=O)CC(=O)CSc1nnc2c(n1)[nH]c1ccccc12,"inconclusive [activator, full curve, poor fit]"
